Measured values as given in US20250270341A1 (Alector, published 2025).
Blank lines part the entries; values can stand above or below the binder they belong to.

What was measured:
Cyno CD98hc ECD Avi-His [1] = target: T1, Cyno CD98hc ECD Avi-His (cynomolgus macaque, UniProt P08195 105-529 (human entry)); assay: SPR, Carterra LSA, antibody immobilized
T1 construct: biotinylated on the Avi tag where captured on streptavidin; also called Cyno CD98-AVI-His; Cyno CD98hc-AVI-His
T1 chain: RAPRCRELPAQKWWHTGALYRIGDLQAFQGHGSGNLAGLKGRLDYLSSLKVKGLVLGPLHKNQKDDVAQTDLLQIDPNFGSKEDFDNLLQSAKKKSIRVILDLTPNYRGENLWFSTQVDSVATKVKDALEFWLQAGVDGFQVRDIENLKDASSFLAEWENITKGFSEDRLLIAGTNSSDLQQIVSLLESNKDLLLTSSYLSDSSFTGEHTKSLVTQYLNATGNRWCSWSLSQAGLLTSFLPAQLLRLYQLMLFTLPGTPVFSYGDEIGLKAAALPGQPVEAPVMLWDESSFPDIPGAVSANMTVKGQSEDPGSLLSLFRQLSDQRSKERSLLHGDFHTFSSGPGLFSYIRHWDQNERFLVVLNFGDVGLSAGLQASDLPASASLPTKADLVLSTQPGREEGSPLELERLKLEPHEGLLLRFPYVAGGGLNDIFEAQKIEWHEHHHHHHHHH

huCD98hc ECD Avi-His [2] = target: T2, huCD98hc ECD Avi-His (human, UniProt P08195 105-529); assay: SPR, Carterra LSA, antibody immobilized
T2 construct: biotinylated on the Avi tag where captured on streptavidin; also called Human CD98-AVI-His; Human CD98hc-AVI-His
T2 sequence: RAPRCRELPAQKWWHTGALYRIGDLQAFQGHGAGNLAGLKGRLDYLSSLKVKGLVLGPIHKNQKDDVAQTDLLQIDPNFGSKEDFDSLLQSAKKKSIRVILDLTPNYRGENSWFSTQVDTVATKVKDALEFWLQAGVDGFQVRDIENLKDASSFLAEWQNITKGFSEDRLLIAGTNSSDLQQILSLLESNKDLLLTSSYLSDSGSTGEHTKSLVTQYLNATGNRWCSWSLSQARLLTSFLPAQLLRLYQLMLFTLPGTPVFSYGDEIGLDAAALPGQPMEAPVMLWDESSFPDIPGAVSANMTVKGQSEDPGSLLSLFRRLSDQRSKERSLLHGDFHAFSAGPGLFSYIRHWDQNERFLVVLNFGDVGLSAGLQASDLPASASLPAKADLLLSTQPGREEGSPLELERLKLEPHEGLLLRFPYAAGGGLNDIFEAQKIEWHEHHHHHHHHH

cyno TfR AVI-His = target: T3, cyno TfR AVI-His (cyno, UniProt H9EXL1 89-760 (rhesus entry)); assay: ELISA, 1-30 ug/mL
T3 construct: control protein

Cyno CD98hc ECD Avi-His [3] = target: T1, Cyno CD98hc ECD Avi-His; assay: ELISA, 1-30 ug/mL
huCD98hc ECD Avi-His [4] = target: T2, huCD98hc ECD Avi-His; assay: ELISA, 1-30 ug/mL

Chain of cyno TfR AVI-His (chain, as listed by the source): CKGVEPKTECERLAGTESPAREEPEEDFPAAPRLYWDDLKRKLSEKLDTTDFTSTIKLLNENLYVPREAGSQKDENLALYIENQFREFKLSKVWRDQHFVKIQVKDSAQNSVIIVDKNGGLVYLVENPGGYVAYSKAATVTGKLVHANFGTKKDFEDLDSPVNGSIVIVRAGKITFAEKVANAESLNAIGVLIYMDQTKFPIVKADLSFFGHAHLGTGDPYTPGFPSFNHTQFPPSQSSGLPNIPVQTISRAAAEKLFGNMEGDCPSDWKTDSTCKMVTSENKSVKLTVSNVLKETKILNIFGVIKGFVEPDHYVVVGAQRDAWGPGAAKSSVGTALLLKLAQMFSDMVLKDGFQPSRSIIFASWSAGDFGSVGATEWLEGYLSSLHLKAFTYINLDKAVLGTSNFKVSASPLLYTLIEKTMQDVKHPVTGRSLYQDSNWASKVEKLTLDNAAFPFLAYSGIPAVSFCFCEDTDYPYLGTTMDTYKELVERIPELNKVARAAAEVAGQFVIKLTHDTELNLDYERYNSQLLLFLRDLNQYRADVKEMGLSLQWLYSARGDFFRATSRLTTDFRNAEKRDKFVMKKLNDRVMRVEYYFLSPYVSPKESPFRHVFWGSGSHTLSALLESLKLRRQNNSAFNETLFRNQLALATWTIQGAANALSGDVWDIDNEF

- Kd (Cyno CD98hc ECD Avi-His [1]): 3.8 nM
- Kd (huCD98hc ECD Avi-His [2]): 3.1 nM
- ELISA ratio to 2nd only (cyno TfR AVI-His): 1
- ELISA ratio to 2nd only (Cyno CD98hc ECD Avi-His [3]): 31
- ELISA ratio to 2nd only (huCD98hc ECD Avi-His [4]): 38
B1: CD98hc.05.007 (2+1 bispecific antibody) (bispecific antibody)
heavy 1: EVRLLESGGGLVQPGGSLRLSCAASGFTFSNYAMGWVRQAPGKGLEWVSAISGSGGSTYYADSVKGRFTTSRDDSKNALYLQMNSLRAEDTAVYYCARGGPGWYAADVWGQGTTVTVSSASTKGPSVFPLAPSSKSTSGGTAALGCLVKDYFPEPVTVSWNSGALTSGVHTFPAVLQSSGLYSLSSVVTVPSSSLGTQTYICNVNHKPSNTKVDKKV[here human IgG1 Fc with changes without letters]GGGGSGGGGSGGGGSDVKLVESGGDLVKPGGSLKLSCAASGFTFSSYSMSWVRQTPEKRLEWVATITSGGSYTYFPDSVKGRFTISRDNAKNTLYLQVSNLKSEDTAMYYCTRGPSFGNYLDYWGQGTTLTVSSGGSEGKSSGSGSESKSTGGSDILMTQSPSSMSASLGDTVSITCHASQGISSNIGWLQQKPGKSFKGLIYRGTNLEDGVPSRFSGSGSGADYSLTISSLESEDFADYYCVQYAHFPYTFGGGTKLEIK
heavy 2: EVRLLESGGGLVQPGGSLRLSCAASGFTFSNYAMGWVRQAPGKGLEWVSAISGSGGSTYYADSVKGRFTTSRDDSKNALYLQMNSLRAEDTAVYYCARGGPGWYAADVWGQGTTVTVSS[here human IgG1 constant region with changes without letters]
light: DIQMTQSPSSLSASVGDRVTITCRASQSISSYLNWYQQKPGKAPKLLIYAASSLQSGVPSRFSGSGSGTDFTLTISSLQPEDFATYYCQQADLPAFAFGGGTKVEIKRTVAAPSVFIFPPSDEQLKSGTASVVCLLNNFYPREAKVQWKVDNALQSGNSQESVTEQDSKDSTYSLSSTLTLSKADYEKHKVYACEVTHQGLSSPVTKSFNRGEC

- Kd (Cyno CD98hc ECD Avi-His [1]): 4.1 nM
- Kd (huCD98hc ECD Avi-His [2]): 13 nM
- ELISA ratio to 2nd only (cyno TfR AVI-His): 1
- ELISA ratio to 2nd only (Cyno CD98hc ECD Avi-His [3]): 19
- ELISA ratio to 2nd only (huCD98hc ECD Avi-His [4]): 27
B2: CD98hc.05.052 (2+1 bispecific antibody) (bispecific antibody)
heavy 1: EVRLLESGGGLVQPGGSLRLSCAASGFTFSNYAMGWVRQAPGKGLEWVSAISGSGGSTYYADSVKGRFTTSRDDSKNALYLQMNSLRAEDTAVYYCARGGPGWYAADVWGQGTTVTVSSASTKGPSVFPLAPSSKSTSGGTAALGCLVKDYFPEPVTVSWNSGALTSGVHTFPAVLQSSGLYSLSSVVTVPSSSLGTQTYICNVNHKPSNTKVDKKV[here human IgG1 Fc with changes without letters]GGGGSGGGGSGGGGSDMQLQESGPGLVKPSQSLSLTCTVTGYSITSDYAWNWIRQFPGNKLEWMGFISYSGTTSYTPSLKRRISITRDTSKNQFFLRLNSVTPEDTATYYCAKSAFYGNVWFAYWGQGTLVTVSSGGSEGKSSGSGSESKSTGGSQFVLTQSPAIMSASPGEKVTISCSASSSVSYMFWYQQKPGSSPKPWISHTSNLASGVPARFSGSGSGTSYSLTISNMEAEDAATYYCQQFHDYPWTFGGGTKLEIK
heavy 2: EVRLLESGGGLVQPGGSLRLSCAASGFTFSNYAMGWVRQAPGKGLEWVSAISGSGGSTYYADSVKGRFTTSRDDSKNALYLQMNSLRAEDTAVYYCARGGPGWYAADVWGQGTTVTVSS[here human IgG1 constant region with changes without letters]
light: B1 light

- Kd (Cyno CD98hc ECD Avi-His [1]): 63 nM
- Kd (huCD98hc ECD Avi-His [2]): 15 nM
- ELISA ratio to 2nd only (cyno TfR AVI-His): 1
- ELISA ratio to 2nd only (Cyno CD98hc ECD Avi-His [3]): 6
- ELISA ratio to 2nd only (huCD98hc ECD Avi-His [4]): 24
B3: CD98hc.05.144 (2+1 bispecific antibody) (bispecific antibody)
heavy 1: EVRLLESGGGLVQPGGSLRLSCAASGFTFSNYAMGWVRQAPGKGLEWVSAISGSGGSTYYADSVKGRFTTSRDDSKNALYLQMNSLRAEDTAVYYCARGGPGWYAADVWGQGTTVTVSSASTKGPSVFPLAPSSKSTSGGTAALGCLVKDYFPEPVTVSWNSGALTSGVHTFPAVLQSSGLYSLSSVVTVPSSSLGTQTYICNVNHKPSNTKVDKKV[here human IgG1 Fc with changes without letters]GGGGSGGGGSGGGGSEVQLVESGGALVKPGGSLKLSCAASGFAFSSFDMSWVRQTPERRVEWVAYISGGGGSTYHPDTVKGRFAISRDNAKNTLYLHMNSLKSEDTAMYYCVRQGSRPWFAYWGQGTLVTVSSGGSEGKSSGSGSESKSTGGSDFVMSQSPSSLTVSVGEKVTMTCKSSQSLLYSYTQKNYLAWYQQKPGQSPNLLIYWASTRESGVPDRFAGSGSGTDFTLTISSVEAEDLAVYYCQQYSNYPPTFGGGTKLEIK
heavy 2: EVRLLESGGGLVQPGGSLRLSCAASGFTFSNYAMGWVRQAPGKGLEWVSAISGSGGSTYYADSVKGRFTTSRDDSKNALYLQMNSLRAEDTAVYYCARGGPGWYAADVWGQGTTVTVSS[here human IgG1 constant region with changes without letters]
light: B1 light
